Measurements: publication PMC8998743, “Dimerization Activity of a Disordered N-Terminal Domain from Drosophila CLAMP Protein” (International Journal of Molecular Sciences, 2022)
No constants are given. Whether binding was seen depends on the method and setting. For some assays here: In cells and extracts the contact can be indirect. Some entries that bind do so weakly or less than the wild type. Where a sequence is shown, tags or fusion partners need not be part of it.

What was measured:
[1] = target: T1, CLAMP^1–153 (GAL4 fusion for Y2H) (D. melanogaster) (UniProt Q9V9N4); experiment: two-hybrid; GAL4 DNA-binding domain (pGBT9) and activation domain (pGAD424) fusions in yeast strain pJ69-4A; growth on selective media without tryptophan, leucine, histidine, or adenine, compared after 2-3 days; 30 °C
T1 sequence: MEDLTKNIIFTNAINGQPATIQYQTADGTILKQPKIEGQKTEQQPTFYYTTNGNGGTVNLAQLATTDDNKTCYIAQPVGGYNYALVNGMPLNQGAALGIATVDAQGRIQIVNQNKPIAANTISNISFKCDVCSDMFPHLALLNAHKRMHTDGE

[2] = target: T2, GST-tagged CLAMP^1–113 (D. melanogaster) (UniProt Q9V9N4); experiment: pull-down; GST-fused and 6xHis-thioredoxin-fused CLAMP derivatives co-expressed in BL21; lysate on glutathione agarose in buffer C (20 mM Tris pH 7.5, 150 mM NaCl, 10 mM MgCl2, 0.1 mM ZnCl2, 0.1% NP40, 10% glycerol, 1 mM DTT), 4 °C, washes with 500 mM NaCl; SDS-PAGE, Coomassie
T2 sequence: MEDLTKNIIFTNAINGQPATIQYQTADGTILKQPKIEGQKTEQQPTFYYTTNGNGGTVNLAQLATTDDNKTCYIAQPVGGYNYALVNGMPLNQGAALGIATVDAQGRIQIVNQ

[3] = target: CLAMP^87–153 (purified, tag cleaved) (D. melanogaster) (UniProt Q9V9N4); experiment: SAXS; in solution, BM29 BioSAXS beamline (ESRF); molecular weight from extrapolated I0; CLAMP 1-153 at 2.3 mg/mL, CLAMP 1-113 at 1.0 and 7.0 mg/mL, CLAMP 87-153 at 2.5 and 10.0 mg/mL; both purified

B1: CLAMP^1–127 (GAL4 fusion for Y2H) (domain or fragment, UniProt Q9V9N4 1-127)
chain: MEDLTKNIIFTNAINGQPATIQYQTADGTILKQPKIEGQKTEQQPTFYYTTNGNGGTVNLAQLATTDDNKTCYIAQPVGGYNYALVNGMPLNQGAALGIATVDAQGRIQIVNQNKPIAANTISNISF
In the case of B1, the binding [1] is reported as “binds”.

B2: 6xHis-thioredoxin-tagged CLAMP^41–113 (domain or fragment, UniProt Q9V9N4 41-113)
chain: TEQQPTFYYTTNGNGGTVNLAQLATTDDNKTCYIAQPVGGYNYALVNGMPLNQGAALGIATVDAQGRIQIVNQ
In the case of B2, the binding [2] is reported as “binds”.

B3: 6xHis-thioredoxin-tagged CLAMP^1–91 (domain or fragment, UniProt Q9V9N4 1-91)
chain: MEDLTKNIIFTNAINGQPATIQYQTADGTILKQPKIEGQKTEQQPTFYYTTNGNGGTVNLAQLATTDDNKTCYIAQPVGGYNYALVNGMPL
In the case of B3, the binding [2] is reported as “binds”.

B4: CLAMP^1–153 (GAL4 fusion for Y2H) (domain or fragment, UniProt Q9V9N4 1-153)
chain: T1 sequence
For B4, the binding [1] was “binds”.

B5: CLAMP^87–153 (purified, tag cleaved) (domain or fragment, UniProt Q9V9N4 87-153)
chain: NGMPLNQGAALGIATVDAQGRIQIVNQNKPIAANTISNISFKCDVCSDMFPHLALLNAHKRMHTDGE
In the case of B5, the binding [3] is reported as “no binding (tested: 2.5 and 10.0 mg/mL)”.
